# Test results reported in PubChem BioAssay AID485281 (National Center for Advancing Translational Sciences (NCATS), 2010).
# Hit rate of the full screen: of about 350,000 compounds, about 260 (0.074%) were called active. Inconclusive results, whose numbers are uncertain, are shown with a selection of clear calls. Calls follow the shape of the dose curve; as a rule, active = well fitted inhibition curve with a large enough effect; inconclusive = small, poorly fitted or top-dose-only effect; inactive = no such curve, though single readings can be large or run the other way. A potency beside an inconclusive call is a rough fit, not a confirmed value.
# Biological target: Ferritin light chain (Equus caballus) (UniProt P02791)
# Sequence of UniProt P02791 (P02791 whole entry, looked up): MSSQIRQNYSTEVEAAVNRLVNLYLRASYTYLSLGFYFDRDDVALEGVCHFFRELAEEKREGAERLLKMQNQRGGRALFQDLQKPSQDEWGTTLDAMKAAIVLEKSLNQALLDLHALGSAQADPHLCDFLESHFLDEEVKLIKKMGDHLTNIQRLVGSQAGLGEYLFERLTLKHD
# Assay: qHTS Assay for Identification of Novel General Anesthetics; also: nearly all actives have a fitted effect of over 20% in size
# Conditions: apoferritin/1-aminoanthracene competitive binding, fluorescence; activity change, negative = displacement: at 77.5 µM (top of the series)
# How it was run: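 Horse-spleen apoferritin (10 uM) in 50% saturated 1-aminoanthracene in PBS was incubated 10 min at room temperature with compound. Fluorescence (ex 380, em 535 nm) was normalized to free and bound 1-AMA, with concentration-response fitted by a four-parameter Hill equation.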
# % is scaled to controls: 0 for no effect and ±100 for the full control effect; potency is read from the fitted curve at half-maximal effect; tags tell the direction and shape of the fitted curve.
Compound,"activity change, negative = displacement",Potency
COc1ccc(-n2nc(C(=O)NCC(=O)NCCCN3CCN(C)CC3)c3ccccc3c2=O)cc1OC,inactive: -2.73%,
O=c1oc2ccccc2c(Nc2cccc(O)c2)c1[N+](=O)[O-],,"inconclusive: 39.8 µM [inhibitor, single point]"
C=CCN1C(=O)SC(Cc2cccc(OC)c2O)C1=O (configuration not stated),,"inconclusive: 14.1 µM [inhibitor, partial curve]"
O=C(Cc1ccccc1[N+](=O)[O-])N1CCc2ccccc2C1,,"inconclusive: 28.2 µM [inhibitor, partial curve]"
CCCN(CCC)CCCNC(=O)c1cc2c(-c3ccc(Cl)cc3)nn(C)c2s1,,"inconclusive: 15.8 µM [inhibitor, partial curve]"
COc1ccc(NC(=O)Nc2ccc(Cc3ccncc3)cc2)cc1OC,,"inconclusive: 35.5 µM [inhibitor, partial curve]"
CC(C)c1ccc2c(c1)CC[C@H]1[C@](C)(CN)CCC[C@]21C,,"inconclusive: 50.1 µM [inhibitor, single point]"
Cc1nnc(NC(=O)c2cc(-c3ccncc3)nc3c(C)cccc23)s1,,"inconclusive: 17.8 µM [inhibitor, partial curve]"
O=C(COc1ccccc1[N+](=O)[O-])Nc1cccc(Cl)c1N1CCOCC1,,"inconclusive: 31.6 µM [inhibitor, partial curve]"
CCCCOc1ccc(-c2ncc(N)cn2)cc1,inactive: -7.15%,
CCOC(=O)C/C(C)=N/NC(=O)CNc1cccc(Cl)c1C,,"inconclusive: 14.1 µM [inhibitor, partial curve]"
Cc1ccc(CSC2=Nc3ccccc3C3=NC(CCC(=O)NCCc4ccccc4)C(=O)N23)cc1 (configuration not stated),,"inconclusive: 22.4 µM [inhibitor, partial curve]"
CCOC(=O)C1CCCN(Cc2ccccc2Cl)C1 (configuration not stated),,"inconclusive: 39.8 µM [inhibitor, single point]"
O=S(=O)(Nc1cccc(Cl)c1)c1ccc(-n2cccn2)cc1,,"inconclusive: 14.1 µM [inhibitor, partial curve]"
O=C(Nc1ccc(Oc2ccc(Cl)cc2)cc1)c1ncn[nH]1,,"inconclusive: 10 µM [inhibitor, partial curve]"
CCN(CC)CCOC(=O)c1ccc(NC(=O)C(C)NC(=O)C23CC4CC(CC(C4)C2)C3)cc1 (configuration not stated),,"inconclusive: 39.8 µM [inhibitor, single point]"
CC1CCCN(C2=C(Cl)C(=O)N(c3cccc(Cl)c3)C2=O)C1 (configuration not stated),inactive: -15.8%,
O=C(CCNS(=O)(=O)c1cccc2nonc12)NC1CCCCCC1,,"inconclusive: 22.4 µM [inhibitor, partial curve]"
Cc1cccc(NC(=O)c2cccc(NC(=O)Cc3cccs3)c2)c1,,"inconclusive: 17.8 µM [inhibitor, partial curve]"
COc1ccc(OCCC(=O)OCC(=O)NC(=O)NC2CCCCC2)cc1,,"inconclusive: 28.2 µM [inhibitor, partial curve]"
Cc1ccc(Nc2nc(-c3ccc(S(=O)(=O)N4CCOCC4)cc3)cs2)cc1Cl,inactive: -14.5%,

Compound,"activity change, negative = displacement",Potency
Cc1ccc(CS(=O)Cc2ccc(C(=O)NC3CCCC(C)C3C)o2)cc1 (configuration not stated),,"inconclusive: 39.8 µM [inhibitor, partial curve]"
Cc1nc2scc(C)n2c(=O)c1S(=O)(=O)Nc1ccc(N2CCN(C(=O)C(C)C)CC2)cc1,,"inconclusive: 50.1 µM [inhibitor, single point]"
COc1ccc(CN(C)C(=O)c2ccc3c(=O)n4c(nc3c2)CCC4)cc1,,"inconclusive: 20 µM [inhibitor, partial curve]"
CN(C)NC(=S)Nc1ccc(S(=O)(=O)N2CCCCC2)cc1,inactive: -9.98%,
C/C(CC(=O)Nc1cccc2c1CCCC2)=N\NC(=O)COc1ccccc1,,"inconclusive: 12.6 µM [inhibitor, partial curve]"
COc1ccccc1-c1nnc(SCC(=O)c2ccc(F)cc2)n1-c1ccccc1,,"inconclusive: 28.2 µM [inhibitor, partial curve]"
O=C(CN1C(=O)NC2(CCCCCC2)C1=O)c1ccc2c(c1)OCCO2,,"inconclusive: 25.1 µM [inhibitor, partial curve]"
CCC[C@@H]1O[C@@H]2C[C@@H]3[C@H]4CCC5=CC(=O)C=C[C@@]5(C)[C@H]4[C@H](O)C[C@@]3(C)[C@@]2(C(=O)CO)O1,inactive: -10% [at 29.3 µM],
C(=N\n1cnnc1)/c1cn(-c2cccs2)nc1-c1ccccc1,,"inconclusive: 12.6 µM [inhibitor, partial curve]"
COc1cc(-c2nc(S(=O)(=O)c3ccc(C)cc3)c(N(C)C)o2)cc(OC)c1OC,inactive: -4.68%,
COC1CCCCC1Nc1cc(C)cc(C)c1 (configuration not stated),,"inconclusive: 39.8 µM [inhibitor, partial curve]"
CC(C)(C)OC(=O)CNC(=O)c1[nH]cnc1C(=O)Nc1ccc(Cl)cc1,,"inconclusive: 35.5 µM [inhibitor, partial curve]"
CC1CC(C)CN(C(=O)CCc2ccccc2)C1 (configuration not stated),,"inconclusive: 28.2 µM [inhibitor, partial curve]"
COc1ccccc1CN1CCC(CNC(=O)c2cnn(-c3ccc(C)c(C)c3)c2C2CCN(C(=O)OC(C)(C)C)CC2)CC1,,"inconclusive: 35.5 µM [inhibitor, partial curve]"
CSc1ccc(CN2C(=O)NC3(CCCCC3)C2=O)cc1,,"inconclusive: 35.5 µM [inhibitor, partial curve]"
CC(=O)c1cc(C#N)c(SCc2ccccc2)nc1C,,"inconclusive: 22.4 µM [inhibitor, partial curve]"
O=c1c(N2CCc3ccccc3C2)csc2ccc(Br)cc12,inactive: -5.11%,
O=[N+]([O-])c1cc(S(=O)(=O)N2CCCC2)ccc1N/N=C1/CCCc2ccccc21,inactive: 5.44%,
COc1cc(OC)c(OC)cc1/C=N/NC(=S)NCC1CCCO1 (configuration not stated),inactive: -5.47%,
CCOc1ccc(C(=O)NCc2ccc3c(c2)CCN3C(=O)c2ccc(C)cc2)cc1OCC,inactive: 6.72%,
Cc1ccc(-c2cc(-c3nnc(SCC(=O)NCC(C)C)n3N)c3ccccc3n2)cc1,,"inconclusive: 25.1 µM [inhibitor, partial curve]"
